Measurements published in publication PMC5700166.
Only a part is listed here, and it is no random draw. The list includes weakly bound sequences.

Tests used:
Assay in all cases: protein-binding microarray (PBM)
Settings in all cases: PBM: ~300 nM protein, 6 mM HEPES pH 7.8, 80 mM KCl, 0.5 mM EDTA, 0.5 mM EGTA, 6% glycerol, 35 ng/ul poly-dIdC, 1% milk, 1 h, room temperature; Ap Aiptasia and Nv Nematostella (sea anemones) / Co Capsaspora / Aq Amphimedon (sponge) / Dm Drosophila / Hu human; RHD is the Rel homology domain; high values mean tight binding; most listed sequences are background and not binding sites; double strand, one strand shown
GST-Ap-NF-kB RHD = molecular target: T1, GST-Ap-NF-kB RHD (UniProt A0A913YAJ5)
T1 sequence: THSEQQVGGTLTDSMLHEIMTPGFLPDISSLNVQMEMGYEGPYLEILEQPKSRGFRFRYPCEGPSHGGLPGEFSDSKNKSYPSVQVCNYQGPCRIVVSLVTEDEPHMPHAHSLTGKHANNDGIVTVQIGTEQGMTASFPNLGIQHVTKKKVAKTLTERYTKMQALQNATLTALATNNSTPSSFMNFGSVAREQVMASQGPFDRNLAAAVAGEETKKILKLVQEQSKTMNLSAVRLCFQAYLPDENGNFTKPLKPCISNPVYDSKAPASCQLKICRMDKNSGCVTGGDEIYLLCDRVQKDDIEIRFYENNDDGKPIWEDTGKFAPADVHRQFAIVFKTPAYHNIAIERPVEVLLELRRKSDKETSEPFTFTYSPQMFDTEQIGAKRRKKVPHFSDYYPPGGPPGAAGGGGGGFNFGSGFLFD

GST-Co-NF-kB = molecular target: T2, GST-Co-NF-kB (UniProt F1ARL5)
T2 sequence: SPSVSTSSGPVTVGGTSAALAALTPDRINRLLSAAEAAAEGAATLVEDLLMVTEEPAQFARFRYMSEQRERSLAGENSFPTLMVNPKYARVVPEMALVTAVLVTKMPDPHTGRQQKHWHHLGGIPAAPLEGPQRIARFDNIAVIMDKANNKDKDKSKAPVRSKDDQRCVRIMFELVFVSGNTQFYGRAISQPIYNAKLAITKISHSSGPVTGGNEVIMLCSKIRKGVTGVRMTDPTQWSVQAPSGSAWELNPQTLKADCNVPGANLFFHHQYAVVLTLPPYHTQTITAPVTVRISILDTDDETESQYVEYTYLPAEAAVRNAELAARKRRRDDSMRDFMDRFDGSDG

[1] = molecular target: T3, GST-Nv-NF-kB (Cys allele) (UniProt E5G601)
T3 sequence: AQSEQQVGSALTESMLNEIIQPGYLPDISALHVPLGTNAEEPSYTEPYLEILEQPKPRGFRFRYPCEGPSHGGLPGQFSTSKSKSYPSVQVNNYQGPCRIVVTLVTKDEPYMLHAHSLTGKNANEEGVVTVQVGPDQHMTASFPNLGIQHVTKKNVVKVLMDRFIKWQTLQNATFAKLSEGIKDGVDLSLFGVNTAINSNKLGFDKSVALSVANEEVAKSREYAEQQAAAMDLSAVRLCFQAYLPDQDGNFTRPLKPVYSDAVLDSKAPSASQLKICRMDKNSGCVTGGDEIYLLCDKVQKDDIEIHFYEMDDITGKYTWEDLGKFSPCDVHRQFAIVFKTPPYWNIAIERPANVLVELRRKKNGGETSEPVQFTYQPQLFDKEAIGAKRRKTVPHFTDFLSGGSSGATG

GST-Dm-Relish = molecular target: T4, GST-Dm-Relish (UniProt Q94527)
T4 sequence: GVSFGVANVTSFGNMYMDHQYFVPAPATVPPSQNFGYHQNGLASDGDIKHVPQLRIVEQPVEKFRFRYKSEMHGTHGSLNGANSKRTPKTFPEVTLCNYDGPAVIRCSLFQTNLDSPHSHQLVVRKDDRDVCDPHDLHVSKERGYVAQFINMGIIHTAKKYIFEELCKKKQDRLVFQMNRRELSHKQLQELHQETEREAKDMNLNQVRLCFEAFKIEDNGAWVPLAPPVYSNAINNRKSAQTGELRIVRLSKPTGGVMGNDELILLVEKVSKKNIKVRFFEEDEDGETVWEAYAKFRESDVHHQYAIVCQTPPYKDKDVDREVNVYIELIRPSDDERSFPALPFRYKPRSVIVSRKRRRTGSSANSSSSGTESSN

Row | Sequence | binding signal (GST-Ap-NF-kB RHD) [z-score] | binding signal (GST-Co-NF-kB) [z-score] | binding signal [1] [z-score] | binding signal (GST-Dm-Relish) [z-score]
1 | CCGATTAACATCAGGGACATCCCTGATGTTAATCGGGTCTTGATTCGCTTGACGCTGCTG | 5.51 | 0.84 |  | 
2 | CCGATTAACATCAGGGGAGTGTATGATGTTAATCGGGTCTTGATTCGCTTGACGCTGCTG | 3.6 |  | 3.38 | 0.608
3 | CCGATTAACATCAGGGAATGCCCTGATGTTAATCGGGTCTTGATTCGCTTGACGCTGCTG | 5.58 | 1.43 |  | 
4 | CCGATTAACATCACCGGAAATTCTGATGTTAATCGGGTCTTGATTCGCTTGACGCTGCTG | 0.664 | 0.234 |  | 
5 | CCGATTAACATCAGGGGAATTCATGATGTTAATCGGGTCTTGATTCGCTTGACGCTGCTG | 9.45 |  | 10.8 | 7.6
6 | CCGATTAACATCACCGTCCCCCCTGATGTTAATCGGGTCTTGATTCGCTTGACGCTGCTG | 4.94 | 5.1 |  | 
7 | CCGATTAACATCAGGGGGATTAATGATGTTAATCGGGTCTTGATTCGCTTGACGCTGCTG | 6.25 | 6.77 |  | 
8 | CCGATTAACATCAGGGGAGAAACTGATGTTAATCGGGTCTTGATTCGCTTGACGCTGCTG | 4.39 |  | 4.53 | 5.35
9 | CCGATTAACATCACCGTGGGAAATGATGTTAATCGGGTCTTGATTCGCTTGACGCTGCTG | 1.9 | 3.18 |  | 
10 | CCGATTAACATCACGGGGATTCCTGATGTTAATCGGGTCTTGATTCGCTTGACGCTGCTG | 9.77 |  | 9.58 | 10.6
11 | CCGATTAACATCAAAATATTCCGTGATGTTAATCGGGTCTTGATTCGCTTGACGCTGCTG | 0.0711 |  | -0.357 | 0.839
12 | CCGATTAACATCAAGGACTTCCCTGATGTTAATCGGGTCTTGATTCGCTTGACGCTGCTG | 2.9 | 0.935 |  | 
